The values below come from the supplement of paper PMC7125110.

The labels stand for the following.
B1: glmS ribozyme (parent)
chain: AUAAAAGCGCCAGAACUACAGAAAUGUAGUUGACGAGGAGGAGGUUUAUCGAAUUUUCGGCGGAUGCCUCCAAA

Common to all, as to conditions: with glucosamine-6-phosphate
The variants in series [1] derive from B1. As to the kind of experiment: self-cleavage kobs at 40 uM GlcN6P; higher = faster cleavage; RNA array. The gist of the method:
(§1)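 kobs was derived by fitting per-tile medians to one- or two-exponential decays after normalising signals to baseline and to non-cleaving reference variants. Those signals came from barcoded ribozyme variants transcribed in situ by E. coli RNA polymerase on sequenced MiSeq chips, followed through a hybridised Cy3 probe at 37 °C and imaged over ~14 h. Glucosamine-6-phosphate (40 μM to 10 mM) in HEPES/KCl/Mg(OAc)2 buffer was flowed in. Weighted Michaelis–Menten fits across concentrations then gave kcat and KM.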

In series [2] the parent is B1. As to the kind of experiment: self-cleavage kobs at 640 uM GlcN6P; higher = faster cleavage; RNA array. The procedure, abridged: as §1
The variants in series [3] derive from B1. As to the kind of experiment: self-cleavage kobs at 160 uM GlcN6P; higher = faster cleavage; RNA array. The procedure, abridged: as §1
In series [4] the parent is B1. Nature of the series: self-cleavage kobs at 10000 uM GlcN6P; higher = faster cleavage; RNA array. The gist of the method:
as §1

The variants in series [5] derive from B1. As to the kind of experiment: self-cleavage kobs at 2500 uM GlcN6P; higher = faster cleavage; RNA array. The procedure, abridged:
as §1

± gives the standard error. Variants at the background level are over-represented here.

As to U65C U69C, the “self-cleavage kobs at 40 uM GlcN6P” value with glucosamine-6-phosphate [1] was less than 1e-05 s⁻¹.
As to U56C C68A, the “self-cleavage kobs at 40 uM GlcN6P” value in the series with glucosamine-6-phosphate [1] is less than 1e-05 s⁻¹. Besides, the “self-cleavage kobs at 640 uM GlcN6P” value with glucosamine-6-phosphate [2] was less than 1e-05 s⁻¹. Moreover, the “self-cleavage kobs at 160 uM GlcN6P” value with glucosamine-6-phosphate [3] was less than 1e-05 s⁻¹. Further, in the series with glucosamine-6-phosphate [4], the “self-cleavage kobs at 10000 uM GlcN6P” value is less than 1e-05 s⁻¹.
On to A64G C67U, for which, in the series with glucosamine-6-phosphate [1], the “self-cleavage kobs at 40 uM GlcN6P” value came to 2.93e-05 ± 7.3e-06 s⁻¹. Further, the “self-cleavage kobs at 640 uM GlcN6P” value with glucosamine-6-phosphate [2] was determined as 0.000628 ± 8.6e-05 s⁻¹. The “self-cleavage kobs at 160 uM GlcN6P” value with glucosamine-6-phosphate [3] came out at 0.000155 ± 2.3e-05 s⁻¹. Also, the “self-cleavage kobs at 2500 uM GlcN6P” value with glucosamine-6-phosphate [5] stood at 0.00125 ± 0.00017 s⁻¹. For the same variant, the “self-cleavage kobs at 10000 uM GlcN6P” value with glucosamine-6-phosphate [4] came to 0.00154 ± 0.00015 s⁻¹.
Regarding U57C C61A, in the series with glucosamine-6-phosphate [1], the “self-cleavage kobs at 40 uM GlcN6P” value was less than 1e-05 s⁻¹. The “self-cleavage kobs at 640 uM GlcN6P” value in the series with glucosamine-6-phosphate [2] was less than 1e-05 s⁻¹. In the series with glucosamine-6-phosphate [3], the “self-cleavage kobs at 160 uM GlcN6P” value is less than 1e-05 s⁻¹.
On to A64U U65A, for which, in the series with glucosamine-6-phosphate [1], the “self-cleavage kobs at 40 uM GlcN6P” value was less than 1e-05 s⁻¹. Also, the “self-cleavage kobs at 160 uM GlcN6P” value with glucosamine-6-phosphate [3] is less than 1e-05 s⁻¹. The “self-cleavage kobs at 10000 uM GlcN6P” value in the series with glucosamine-6-phosphate [4] was less than 1e-05 s⁻¹.
Consider U57G U65A, for which, in the series with glucosamine-6-phosphate [1], the “self-cleavage kobs at 40 uM GlcN6P” value is less than 1e-05 s⁻¹.
In the case of C61A U65G, the “self-cleavage kobs at 40 uM GlcN6P” value with glucosamine-6-phosphate [1] is less than 1e-05 s⁻¹. Moreover, the “self-cleavage kobs at 640 uM GlcN6P” value with glucosamine-6-phosphate [2] was less than 1e-05 s⁻¹. The “self-cleavage kobs at 160 uM GlcN6P” value with glucosamine-6-phosphate [3] is less than 1e-05 s⁻¹. For the same variant, the “self-cleavage kobs at 10000 uM GlcN6P” value with glucosamine-6-phosphate [4] was less than 1e-05 s⁻¹.
With U57A G59C, the “self-cleavage kobs at 40 uM GlcN6P” value with glucosamine-6-phosphate [1] is less than 1e-05 s⁻¹. In addition, the “self-cleavage kobs at 160 uM GlcN6P” value with glucosamine-6-phosphate [3] was less than 1e-05 s⁻¹.
As to G63C U65G, the “self-cleavage kobs at 40 uM GlcN6P” value with glucosamine-6-phosphate [1] was less than 1e-05 s⁻¹.
A53U G60A U65G: the “self-cleavage kobs at 40 uM GlcN6P” value with glucosamine-6-phosphate [1] is less than 1e-05 s⁻¹. Further, in the series with glucosamine-6-phosphate [4], the “self-cleavage kobs at 10000 uM GlcN6P” value was less than 1e-05 s⁻¹.
U57C G60C: in the series with glucosamine-6-phosphate [1], the “self-cleavage kobs at 40 uM GlcN6P” value is less than 1e-05 s⁻¹. The “self-cleavage kobs at 640 uM GlcN6P” value with glucosamine-6-phosphate [2] is less than 1e-05 s⁻¹. Moreover, the “self-cleavage kobs at 160 uM GlcN6P” value in the series with glucosamine-6-phosphate [3] is less than 1e-05 s⁻¹. Further, the “self-cleavage kobs at 2500 uM GlcN6P” value with glucosamine-6-phosphate [5] is less than 1e-05 s⁻¹. Moreover, the “self-cleavage kobs at 10000 uM GlcN6P” value with glucosamine-6-phosphate [4] is less than 1e-05 s⁻¹.
For U69A, the “self-cleavage kobs at 40 uM GlcN6P” value with glucosamine-6-phosphate [1] was 0.000341 ± 7.7e-05 s⁻¹. Besides, the “self-cleavage kobs at 640 uM GlcN6P” value in the series with glucosamine-6-phosphate [2] worked out at 0.000282 ± 3.1e-05 s⁻¹. In addition, in the series with glucosamine-6-phosphate [3], the “self-cleavage kobs at 160 uM GlcN6P” value turned out to be 0.000534 ± 0.00018 s⁻¹. For the same variant, the “self-cleavage kobs at 2500 uM GlcN6P” value with glucosamine-6-phosphate [5] is 0.00219 ± 0.0004 s⁻¹. In the series with glucosamine-6-phosphate [4], the “self-cleavage kobs at 10000 uM GlcN6P” value worked out at 0.000299 ± 4.6e-05 s⁻¹.
On to U69G, for which, in the series with glucosamine-6-phosphate [1], the “self-cleavage kobs at 40 uM GlcN6P” value amounted to 0.000371 ± 0.00012 s⁻¹. In addition, in the series with glucosamine-6-phosphate [2], the “self-cleavage kobs at 640 uM GlcN6P” value was determined as 0.000488 ± 0.00012 s⁻¹. The “self-cleavage kobs at 160 uM GlcN6P” value with glucosamine-6-phosphate [3] turned out to be 5.87e-05 ± 2.4e-06 s⁻¹.
Take G62U A64U C68U: the “self-cleavage kobs at 40 uM GlcN6P” value in the series with glucosamine-6-phosphate [1] was less than 1e-05 s⁻¹. The “self-cleavage kobs at 10000 uM GlcN6P” value with glucosamine-6-phosphate [4] is less than 1e-05 s⁻¹.
Take U56C C61G C67G: the “self-cleavage kobs at 40 uM GlcN6P” value with glucosamine-6-phosphate [1] is less than 1e-05 s⁻¹. Also, the “self-cleavage kobs at 10000 uM GlcN6P” value in the series with glucosamine-6-phosphate [4] is less than 1e-05 s⁻¹.
Consider G60U G63C, for which the “self-cleavage kobs at 40 uM GlcN6P” value with glucosamine-6-phosphate [1] was less than 1e-05 s⁻¹. Besides, the “self-cleavage kobs at 640 uM GlcN6P” value with glucosamine-6-phosphate [2] was less than 1e-05 s⁻¹. Also, the “self-cleavage kobs at 2500 uM GlcN6P” value with glucosamine-6-phosphate [5] is less than 1e-05 s⁻¹. Further, the “self-cleavage kobs at 10000 uM GlcN6P” value with glucosamine-6-phosphate [4] was less than 1e-05 s⁻¹.
As to G60A G63U, the “self-cleavage kobs at 40 uM GlcN6P” value in the series with glucosamine-6-phosphate [1] is less than 1e-05 s⁻¹. Besides, the “self-cleavage kobs at 640 uM GlcN6P” value with glucosamine-6-phosphate [2] is less than 1e-05 s⁻¹. Also, the “self-cleavage kobs at 160 uM GlcN6P” value in the series with glucosamine-6-phosphate [3] was less than 1e-05 s⁻¹. Also, the “self-cleavage kobs at 10000 uM GlcN6P” value in the series with glucosamine-6-phosphate [4] is less than 1e-05 s⁻¹.
In the case of G59C G62U U69A, the “self-cleavage kobs at 40 uM GlcN6P” value in the series with glucosamine-6-phosphate [1] was less than 1e-05 s⁻¹. Besides, the “self-cleavage kobs at 640 uM GlcN6P” value with glucosamine-6-phosphate [2] is less than 1e-05 s⁻¹.
As to G66A C67U, the “self-cleavage kobs at 40 uM GlcN6P” value with glucosamine-6-phosphate [1] is 0.000173 ± 2.6e-05 s⁻¹. Besides, the “self-cleavage kobs at 640 uM GlcN6P” value in the series with glucosamine-6-phosphate [2] was 0.00134 ± 0.0002 s⁻¹. Besides, in the series with glucosamine-6-phosphate [3], the “self-cleavage kobs at 160 uM GlcN6P” value was determined as 0.000398 ± 6.5e-05 s⁻¹. Also, the “self-cleavage kobs at 2500 uM GlcN6P” value with glucosamine-6-phosphate [5] was found to be 0.0016 ± 0.0003 s⁻¹. In addition, the “self-cleavage kobs at 10000 uM GlcN6P” value with glucosamine-6-phosphate [4] was 0.00498 ± 0.00098 s⁻¹.
For the variant A6C A14G C67U C70A, the “self-cleavage kobs at 640 uM GlcN6P” value with glucosamine-6-phosphate [2] was less than 1e-05 s⁻¹. Besides, in the series with glucosamine-6-phosphate [5], the “self-cleavage kobs at 2500 uM GlcN6P” value is less than 1e-05 s⁻¹.
Take U57A U65A: the “self-cleavage kobs at 40 uM GlcN6P” value in the series with glucosamine-6-phosphate [1] was less than 1e-05 s⁻¹. For the same variant, the “self-cleavage kobs at 160 uM GlcN6P” value in the series with glucosamine-6-phosphate [3] was less than 1e-05 s⁻¹.
